{"source": "the supplement of paper PMC11417369", "note": "± gives the standard deviation of the averaged measurements. The list shows a part of the results."}
{"tested_on": "PfAP2-EXP AP2 domain (GST-tagged)", "assay": "gcPBM binding intensity (ln(normalized median fluorescence intensity)); higher = stronger DNA binding", "how_it_was_run": "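Probes on an Agilent 4 × 180k array were primer-extended, double-stranded and 36 bp long, taken from intergenic genomic regions, with negative controls added. GST-tagged P. falciparum DNA-binding domains from E. coli, about 25 μg on average, were applied to the array for 1 h in 1× PBS containing 1% milk, 0.2 mg/ml BSA, 0.5% salmon testes DNA and 0.03% Triton X-100. Binding intensity, obtained after Alexa488 anti-GST antibody detection and a 488 nm scan, is the highest Masliner-normalised natural-log median intensity across replicate spots of either probe orientation.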"}
{"sequence": "TTCCAAACCTCATTATGGAAAATAAAAAAATAAAAA [XGTACX_negctrl_site17]", "gcPBM binding intensity (ln)": "8.39 ± 0.54"}
{"sequence": "AGAATATTATATTATGCATGCATATAGAAAAATATA [TGCATGCA_site302]", "gcPBM binding intensity (ln)": "9.75 ± 0.27"}
{"sequence": "ATAAAATATTTTTGAACATGCAGGTAAAAAATAAAA [TGCATGCA_site1019]", "gcPBM binding intensity (ln)": "8.97 ± 0.33"}
{"sequence": "TGTATAAGTATTAATACACACACAAAATAATAAAAA [CACACA_site9156]", "gcPBM binding intensity (ln)": "8.91 ± 0.35"}
{"sequence": "TACTTACATTATTTATTTATATAAAAAGTTAATTAT [XGTACX_negctrl_site433]", "gcPBM binding intensity (ln)": "8.26 ± 0.42"}
{"sequence": "ATAATTAACAAATACACACACACACCCCCACAAAAA [CACACA_site518]", "gcPBM binding intensity (ln)": "10.1 ± 0.33"}
{"sequence": "TATATATTTTTTTTTTGTACTCACAATATATGTATG [XGTACX_site8024]", "gcPBM binding intensity (ln)": "8.74 ± 0.5"}
{"sequence": "AAATTAAAATATAATACACACATAAAAAAAAAAAAA [CACACA_site4183]", "gcPBM binding intensity (ln)": "8.39 ± 0.61"}
{"sequence": "AGTATTCATAAAAATACACACATGGAAAAATAAACT [CACACA_site6796]", "gcPBM binding intensity (ln)": "8.96 ± 0.4"}
{"sequence": "TACATAATACATATAACACACACAATTATACATAAA [CACACA_site9060]", "gcPBM binding intensity (ln)": "8.69 ± 0.39"}
{"sequence": "ATAATTACAAAATAAACACACATATAGATTTATATG [CACACA_site6343]", "gcPBM binding intensity (ln)": "8.51 ± 0.25"}
{"sequence": "CACATATATATGTGTGCATGTTGTATTATATATTTA [TGCATGCA_site632]", "gcPBM binding intensity (ln)": "8.96 ± 0.27"}
{"sequence": "ATATAATTAAAATGCTCACACACATAAAAAAAAATT [CACACA_site2148]", "gcPBM binding intensity (ln)": "8.43 ± 0.55"}
{"sequence": "GTACATATATACATTACACACGGTTTGATTTAAAAA [CACACA_site3379]", "gcPBM binding intensity (ln)": "8.66 ± 0.29"}
{"sequence": "ATTTTATTTTTTAAAGGTACAGTTACAGCTTATATA [XGTACX_site7513]", "gcPBM binding intensity (ln)": "8.45 ± 0.44"}
{"sequence": "TCTTTTAAAAAAAAAGGAGGAACATAAAAAGTAGAA [XGTACX_negctrl_site272]", "gcPBM binding intensity (ln)": "8.85 ± 0.47"}
{"sequence": "AACAAACACGGACACACACACACACTAGAATGATTA [CACACA_site5364]", "gcPBM binding intensity (ln)": "8.71 ± 0.51"}
{"sequence": "AAAAATTTAAGTGGGGGTACATTTTTTTAACACCTT [XGTACX_site1093]", "gcPBM binding intensity (ln)": "9.46 ± 0.48"}
{"sequence": "TAATATATTAACATGGGTACATATTATTTCATGTGT [XGTACX_site5985]", "gcPBM binding intensity (ln)": "8.4 ± 0.34"}
{"sequence": "ATATTTAAATGTAATACATGCAAATTTGAACATTTT [TGCATGCA_site736]", "gcPBM binding intensity (ln)": "9.04 ± 0.32"}
{"sequence": "AAAAAAAAAAAAATCACACATATGTATTTATATATA [CACACA_site5790]", "gcPBM binding intensity (ln)": "8.21 ± 0.46"}
{"sequence": "AATAAATAAGCAACATGTACATACAAATATATACAT [XGTACX_site8529]", "gcPBM binding intensity (ln)": "8.48 ± 0.35"}
{"sequence": "TTTAATTTTTTTAATTCACACATTATTCCATCCTTT [CACACA_site5480]", "gcPBM binding intensity (ln)": "8.6 ± 0.31"}
{"sequence": "ATCTAATAAAAATACACACACATATGATTTGTGAAT [CACACA_site1867]", "gcPBM binding intensity (ln)": "8.22 ± 0.45"}
{"sequence": "ATTTTCCATTGTGCTACACACAACGGTTCGCAATAA [CACACA_site2974]", "gcPBM binding intensity (ln)": "8.56 ± 0.34"}
{"sequence": "TAAAAAAAATAGTCAAGTACATAAGAAGGGAAGAAA [XGTACX_site8733]", "gcPBM binding intensity (ln)": "8.84 ± 0.45"}
{"sequence": "ACTAAAAGATATATAATTTCTTTCTTATTTATTTTT [CACACA_negctrl_site842]", "gcPBM binding intensity (ln)": "8.1 ± 0.35"}
{"sequence": "TTATTCATATTATCATGTACTTATATATATTGTCAT [XGTACX_site2231]", "gcPBM binding intensity (ln)": "8.59 ± 0.4"}
{"sequence": "TGTTTCCAAAAAAAAAAAAAAAAAAAAAAAAAAAAA [CACACA_negctrl_site358]", "gcPBM binding intensity (ln)": "7.96 ± 0.33"}
{"sequence": "AAAAAAACATGAAACACACACAAATATTTATTTATA [CACACA_site6967]", "gcPBM binding intensity (ln)": "8.52 ± 0.42"}
{"sequence": "TATTATATATATAAATGTACTTATTTTAATTCCCCT [XGTACX_site8638]", "gcPBM binding intensity (ln)": "8.52 ± 0.26"}
{"sequence": "TTTTGTTTATTATGATTCAAAATGATTTTATCTTTG [TGCATGCA_negctrl_site425]", "gcPBM binding intensity (ln)": "8.29 ± 0.46"}
{"sequence": "ATTACATACACGCGCACACACAAAAAAAAAAAAAAA [CACACA_site1334]", "gcPBM binding intensity (ln)": "8.59 ± 0.26"}
{"sequence": "ATATATATATATATATGTACTTATATATAATATAGA [XGTACX_site3488]", "gcPBM binding intensity (ln)": "10.1 ± 0.47"}
{"sequence": "GTACTCTTCTCCAGACTGCACTATACGACTCGTACA [GTGCAC_site9770]", "gcPBM binding intensity (ln)": "9.2 ± 0.33"}
{"sequence": "TGGTATGTTTTACAAAGTACCCATCGATTCTTATGT [XGTACX_site2822]", "gcPBM binding intensity (ln)": "8.48 ± 0.35"}
{"sequence": "AAAAAAAAAAAAAGTACACACTTTTGCGTACATGTA [CACACA_site7449]", "gcPBM binding intensity (ln)": "8.41 ± 0.29"}
{"sequence": "AAAAAGTAGTAAAACAGTACAGTATTTATGCCTATT [XGTACX_site6434]", "gcPBM binding intensity (ln)": "8.63 ± 0.61"}
{"sequence": "AATATATTTTTCTACCGTACATAATAAAATATATAT [XGTACX_site1777]", "gcPBM binding intensity (ln)": "8.61 ± 0.37"}
{"sequence": "TATTTATTTATTTATTGTACATAAGTATATATTATA [XGTACX_site6566]", "gcPBM binding intensity (ln)": "8.56 ± 0.39"}
{"sequence": "GAACCACTAAAATGAGCATGCTCATATTTACATATA [TGCATGCA_site1033]", "gcPBM binding intensity (ln)": "8.8 ± 0.36"}
{"sequence": "TTTTTTTTTTTTTTTGCATGTTGTTTAATGTATTGT [TGCATGCA_site772]", "gcPBM binding intensity (ln)": "8.38 ± 0.4"}
{"sequence": "TATCATTTTATTATTCTACACACTTATCTATAATTA [CACACA_site7894]", "gcPBM binding intensity (ln)": "8.6 ± 0.54"}
{"sequence": "AAATAAGAGCGTAGCACACACGCATTTTATAAATGT [CACACA_site741]", "gcPBM binding intensity (ln)": "8.68 ± 0.47"}
